In PubChem BioAssay AID360 (National Center for Advancing Translational Sciences (NCATS), 2006):
Screen size: about 48,000 compounds; about 550 (1.1%) were called active. Not shown: some 4% with an inconclusive outcome. Cut-off read from the data, not from the text of the source: active = potency below about 15 µM; inconclusive = mostly about 16 µM to 33 µM; inactive = weaker than that. Some of the results follow.

Biological target: Lysosomal acid glucosylceramidase (Homo sapiens) (UniProt P04062)
Test: Glucocerebrosidase;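 note: the screen sought inhibitors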
Conditions: purified enzyme, resorufin glucoside fluorescence (screen aimed at inhibitors), 20 min
In short: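 Normal human glucocerebrosidase (0.2 nM final) was assayed with resorufin β-D-glucopyranoside (30 uM final) in 50mM citric acid/KH2PO4, 10mM sodium taurocholate, 0.01% tween-20, pH 5.9. Compounds were titrated; fluorescence (Ex 548, Em 600) read after 20 min at RT.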
Potency is the fitted concentration of half-maximal effect.

Sequence of UniProt P04062 (P04062 whole entry, looked up): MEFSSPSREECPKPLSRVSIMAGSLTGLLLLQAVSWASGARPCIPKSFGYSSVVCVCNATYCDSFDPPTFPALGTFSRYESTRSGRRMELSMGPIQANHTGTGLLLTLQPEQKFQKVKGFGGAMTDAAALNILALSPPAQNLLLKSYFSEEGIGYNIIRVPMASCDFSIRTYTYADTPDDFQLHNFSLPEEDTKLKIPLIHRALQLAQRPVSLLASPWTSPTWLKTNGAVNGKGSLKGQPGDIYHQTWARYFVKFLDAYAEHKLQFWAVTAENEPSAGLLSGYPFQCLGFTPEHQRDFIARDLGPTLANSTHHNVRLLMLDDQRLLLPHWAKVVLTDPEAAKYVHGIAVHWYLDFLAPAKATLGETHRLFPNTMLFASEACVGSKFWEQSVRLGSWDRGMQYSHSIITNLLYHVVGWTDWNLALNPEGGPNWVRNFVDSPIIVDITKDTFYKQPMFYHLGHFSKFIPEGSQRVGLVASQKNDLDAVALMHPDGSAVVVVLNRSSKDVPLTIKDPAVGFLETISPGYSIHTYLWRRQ

Potency, active:
COCC(=O)NCCNc1nc2ccc(C)cc2cc1C 2.75 µM

Potency, inactive:
CCOC(=O)c1ccccc1NC(=O)CSc1nnc(COc2ccccc2)n1CC > 76.9 µM
O=C(NCc1ccco1)C1CCCN1C(=O)NCc1ccccc1 (stereo unspecified) > 76.9 µM
O=C1NCCCc2c1oc1cc(Br)c(O)c(Br)c21 > 76.9 µM
Cc1nc2cc(NC(=O)N(C)c3ccc4ccccc4c3)ccc2o1 > 76.9 µM
CCOC(=O)Cn1c(=O)n(C2CCCC2)c(=O)c2ccccc21 > 76.9 µM
Cc1ccc(C)c(N2CCN(S(=O)(=O)c3ccc4c(c3)oc(=O)n4C)CC2)c1 > 76.9 µM
c1cncc(C(c2nnnn2C2CCCC2)N2CCN(Cc3ccc4c(c3)OCO4)CC2)c1 (stereo unspecified) > 76.9 µM
O=C(CCC(=O)c1cccs1)OCC(=O)c1ccc(Cl)s1 > 76.9 µM
Cc1nn(C(C)C(=O)O)c2ccccc12 (stereo unspecified) > 76.9 µM
CCCc1[nH][nH]c(=O)c1C(c1ccccc1)C(C#N)C#N (stereo unspecified) > 76.9 µM
COc1ccc(-c2cc(C(=O)N3CCN(c4ccccn4)CC3)c3ccccc3n2)cc1 > 76.9 µM
COc1ccc(N2C(=O)C3CCCN3C2c2cccc(F)c2)cc1Cl (stereo unspecified) > 76.9 µM
Cc1ccc(N2CC(C)Cn3c2nc2c3c(=O)n(CC(=O)OCc3ccccc3)c(=O)n2C)cc1C (stereo unspecified) > 76.9 µM
O=C1NCCCCC1NC1CC(=O)N(c2ccccc2)C1=O (stereo unspecified) > 76.9 µM
CCOC(=O)COc1nc(C)c(Br)c(OC)n1 > 76.9 µM
CCCCCN(C(=O)NC(=O)Nc1ccccc1C)S(C)(=O)=O > 76.9 µM
Nc1nncn1C(=O)c1c(Cl)cccc1Cl > 76.9 µM
CCOc1ccc2[nH]c(S(=O)(=O)CC)nc2c1Cl > 76.9 µM
CCC(Sc1nncn1C)C(=O)Nc1ccccc1OC (stereo unspecified) > 76.9 µM
COc1ccc(C)cc1-n1nnnc1SC/C(O)=C(\C#N)c1nc2ccccc2[nH]1 > 76.9 µM
COc1ccc(CCNc2oc(COc3ccccc3F)nc2C#N)cc1OC > 76.9 µM
CC(=O)NC(Cc1ccccc1)C(=O)NC1CCN(C(=O)NC2CCCCC2)CC1 (stereo unspecified) > 76.9 µM
CC(=O)N1CCN(c2ccc(S(=O)(=O)N3CCCCC3)cn2)CC1 > 76.9 µM
COc1cccc(C(=O)Nc2ccc(C(=O)O)cc2)c1 > 76.9 µM
CCOC(=O)COn1c2c(c3c4no[n+]([O-])c4ccc31)CCCC2 > 76.9 µM
